Measurements as given in ChEMBL document CHEMBL4888484, “Replenishing the malaria drug discovery pipeline: Screening and hit evaluation of the MMV Hit Generation Library 1 (HGL1) against asexual blood stage Plasmodium falciparum ,using a nano luciferase reporter read-out” (2022).
In all, about 150,000 compounds went through this assay and about 540 (0.36%) showed an effect of 50% or more. The list shows a part of the results.

Tested on: Plasmodium falciparum
Test: Primary screen in NF54 nanoGlo assay, in single point, at 2uM, 72h; a lower Z score goes with more inhibition
Format: functional, Erythrocyte
Conditions: timepoint 72 hour

| Compound | % Inhibition [%] | Z score |
| --- | --- | --- |
| COCCO[C@H]1[C@H](NC(=O)C(C)(C)C)c2ccccc2C12CCNCC2 | -12 | 1.57 |
| Cn1c(=O)c2ncc(OCC(=O)c3ccccc3)nc2n(C)c1=O | 11 | -1.26 |
| O=C(NC[C@H]1C[C@@H]1C(F)(F)F)c1cncnc1-c1ccccc1 | -2 | 0.41 |
| Cc1ccccc1Nc1nc(-c2cnc(N3CCC(C)CC3)nc2C)cc(=O)[nH]1 | -8 | 1.39 |
| C[C@H]1c2ccsc2CCN1C(=O)C1CCCC1 | -7 | 1.02 |
| O=C(Nc1cccc2ncccc12)c1ccc(OC2CCOCC2)nc1 | 0 | 0.08 |
| Cc1nc2c(c(N3C[C@H]4CN(C(=O)COC5CCCC5)C[C@@]4(C)C3)n1)CCCC2 | -1 | 0.15 |
| CCn1cc(C(=O)Nc2cnn(CC)c2C(=O)N2CCOCC2)cn1 | 2 | -0.24 |
| CN(C(=O)c1coc2c1C(=O)NCC(C)(C)C2)C1(C(F)(F)F)CC1 | 0 | 0.01 |
| O=C(NC1CCCCC1C(F)(F)F)c1cc[n+]([O-])cc1 (centres undefined) | 4 | -0.66 |
| Cc1ccnc(NS(=O)(=O)c2cc(C(=O)N3CCCCCC3)cs2)c1 | 4 | -0.49 |
| C[C@@H](Cn1cnc(-c2ccccc2)c1-c1cnc(N)nc1)c1ccccc1 | -4 | 0.47 |
| CCO[C@@H](C)c1nc(Cn2c(C)nn(C(C)C)c2=O)cs1 | -17 | 2.47 |
| CCCCOc1ccc(C(=O)N2C[C@H](C(=O)NC)C3(CCCC3)C2)cc1 | -5 | 0.6 |
| Nc1nc(-c2ccccc2Cl)nn1C(=O)c1cccs1 | -8 | 1.25 |
| Cn1ccnc1C(=O)N[C@H]1CCCN(C(=O)c2cccs2)C1 | -16 | 1.91 |
| Cn1nccc1C(=O)N1CCC(N2C[C@H](Oc3ccccc3)[C@@H]2c2ccncc2)CC1 | -14 | 1.75 |
| CC(C)Cc1ccc(CCC(=O)N2CCc3nc[nH]c(=O)c3C2)cc1 | -6 | 0.78 |
| C=C(C)CN(CC)C(=O)CC[C@H]1CCCO1 | 5 | -0.58 |
| CC1CN(c2ccc(NC(=O)NCc3ccncc3)cc2)CC(C)O1 (centres undefined) | -2 | 0.24 |
| C=CCC[C@@H](CN1CCOCC1)Oc1ncc(Cl)cn1 | 0 | 0.09 |

| Compound | % Inhibition [%] | Z score |
| --- | --- | --- |
| Cc1ccc2oc(N3CCNC(=O)[C@@H]3C(C)C)nc2c1 | 13 | -2.05 |
| Cc1cc(C)c2c(C(=O)N3CCCC[C@@H]3CCN)cc(C3CC3)nc2c1 | -14 | 1.57 |
| Cc1cc(C(=O)N(CCN2CCOCC2)Cc2ccco2)cc(=O)[nH]1 | -4 | 0.46 |
| CCOC1CC(N(C)C(=O)c2cnc[nH]2)C1(CC)CC (centres undefined) | 0 | 0.01 |
| Cc1ccc(NC(=O)Nc2cc(C)c3nc(NS(=O)(=O)c4ccccc4)sc3c2)cc1 | 35 | -3.95 |
| O=C(NCc1ccccn1)C1CN(C(=O)c2c[nH]c3ccccc23)C1 | -12 | 1.35 |
| N#CC1CN(C(=O)NC2CCC3CCCCC3C2)CCO1 (centres undefined) | -5 | 0.94 |
| Cc1ccc(CCNC(=O)[C@H](C)n2nc(C)c3c(C)n(-c4ccc(C)cc4)nc3c2=O)cc1 | 19 | -2.17 |
| O=C(CCc1nc2ccccc2[nH]1)N1CCN(c2ccccn2)CC1 | 31 | -0.27 |
| c1ccc(-n2ncc3c(N4CC[C@H](c5ccccn5)C4)ncnc32)cc1 | -4 | 0.75 |
| CO[C@H]1CN(c2cc(C(C)C)nc(C)n2)CC[C@H]1N | -12 | 2.11 |
| Cc1cc(C(=O)N2CCC[C@@H](NC(=O)c3ccn(C(C)C)n3)C2)on1 | -2 | 0.31 |
| CN(C)c1nc(N2CCN(c3ccc(F)cc3)CC2)nc2c1CN(C(=O)Cc1ccccc1)CC2 | -6 | 1.15 |
| Cc1noc2nc(C3CC3)cc(C(=O)N3CCc4n[nH]cc4C3)c12 | -5 | 0.91 |
| Cc1noc(C)c1C(=O)N[C@@H](C)COc1ccc(F)cc1F | -12 | 1.05 |
| CCc1nc(CN2CC(Oc3cccc(Cl)c3)C2)no1 | -8 | 1.18 |
| O=C(c1n[nH]c2ccccc12)N1CCCN(S(=O)(=O)N2CCCC2)CC1 | -8 | 1.72 |
| Cn1cc(C(=O)NC[C@]2(O)CCCc3occc32)nn1 | -12 | 1.77 |
| O=C(CN1CCOCC1)Nc1nc(CN2CCCCCC2)cs1 | -4 | 0.54 |
| CC(C)N(Cc1ccc(C#N)cc1)C(=O)COC[C@H]1CCCO1 | -5 | 0.63 |
| O=C(NC1CCCC1)N1CCN(c2nc3cccnc3n(Cc3ccccc3)c2=O)CC1 | 34 | -0.75 |
